Screen size: about 350,000 compounds; about 9,900 (2.8%) were called active. Inconclusive results, whose numbers are uncertain, are shown with a selection of clear calls. Calls come from the whole dose curve; as a rule, active = well fitted activation curve with a large enough effect; inconclusive = small, poorly fitted or top-dose-only effect; inactive = no such curve, though single readings can be large or run the other way. Potencies of inconclusive entries are left out as doubtful fits.
experiment: A quantitative high throughput screen for small molecules that induce DNA re-replication in MCF 10a normal breast cells.; note: nearly all actives have a fitted effect of over 50% in size; for activity, positive = re-replication: % of control where 0% means no effect; details: MCF 10A DNA re-replication, Hoechst nuclear intensity, 48 h; activity, positive = re-replication: at 46.1 µM (top of the series)
Potency is the fitted concentration of half-maximal effect; tags give direction and shape of the fitted curve.

Compound | Potency | activity, positive = re-replication
CCOC(=O)N1CCc2c(sc(NC(=O)Cc3ccccc3)c2C(=O)c2ccc(OC)cc2)C1 | inconclusive [activator, partial curve, poor fit] | 
COc1ccc(N=Cc2cc3c(cc2O)OC(N)=C(C#N)C3c2ccccc2)cc1 (stereo not given) | inconclusive [activator, single point] | 
CSc1ccccc1NC(=O)CSCc1ccc(C)cc1 | inconclusive [activator, single point] | 
Cc1cccc(NC(=S)NCCCN2CCOCC2)c1 |  | inactive: -2.22%
COc1ccc(Nc2c3c(nc4ccccc24)CCC3)c(OC)c1 | inconclusive [activator, single point] | 
CCN1CCN(S(=O)(=O)c2ccc(Cl)c(C(=O)N(C)Cc3ccc(Cl)cc3Cl)c2)CC1 | inconclusive [activator, single point] | 
O=C(Nc1n[nH]c(=S)s1)c1ccco1 |  | inactive: -1.63%
OCCC1CN(Cc2cnn(-c3ccc(F)cc3)c2)CCN1Cc1ccsc1 (stereo not given) | inconclusive [activator, partial curve, poor fit] | 
O=C(CSc1nnnn1C1CC2C=CC1C2)Nc1ccc(C(=O)O)cc1 (stereo not given) |  | inactive: -1.54%
C=CCn1c(SCc2c(C)noc2C)nc2ccccc2c1=O | active: 7.31 µM | 
COc1ccc(NC(=O)Cn2c(C)csc2=O)c(OC)c1 |  | inactive: -2.87%
Cc1ccc2c(CN(C)Cc3cccc(F)c3)cc(=O)oc2c1C | inconclusive [activator, single point] | 
COc1ccc(-n2ncc(S(=O)(=O)c3ccccc3)c2-c2ccc(Cl)cc2)cc1 | inconclusive [activator, partial curve, poor fit] | 
COc1cccc(CN(C)C(=O)c2cccc(OC3CCN(C4CCCC4)CC3)c2)c1 | inconclusive [activator, partial curve, poor fit] | 
C=CCn1c(CNc2ccc(C)cc2)nnc1SCC(=O)N/N=C/c1ccc(O)cc1O | inconclusive [activator, full curve, poor fit] | 
COC(=O)c1ccc(NC(=O)COc2ccc(N(C)S(=O)(=O)c3ccc(C)cc3)cc2)cc1 | active: 18.4 µM | 
CCOC(=O)Cn1ccc(NC(=O)c2ccc(F)cc2)n1 | inconclusive [activator, partial curve, poor fit] | 
O=C(CCN1C(=O)/C(=C/c2ccccc2)SC1=S)N1CCCCCC1 | inconclusive [activator, partial curve, poor fit] | 
O=C(Nc1ccc(Cn2cccn2)cc1)c1ccc(COc2ccccc2Br)cc1 | inconclusive [activator, partial curve] | 
COc1ccc(Nc2nc(-c3ccccc3)nc3ccccc23)c(OC)c1 | inconclusive [activator, single point] | 
O=C(CSc1nnc(CNC(=O)C23CC4CC(CC(C4)C2)C3)n1-c1ccc(F)cc1)Nc1ccc(F)cc1 |  | inactive: 5.48%
Cc1ccc(C(=O)OCC(=O)c2ccc(Br)cc2)cc1S(=O)(=O)N1CCOCC1 |  | inactive: 0.509%
C/C(=N\NC(=O)c1nnn(-c2nonc2N)c1-c1ccc2c(c1)OCO2)c1ccccc1 | inconclusive [activator, single point] | 

Compound | Potency | activity, positive = re-replication
Cc1ccccc1C(=O)Oc1ccc(-c2csnn2)cc1 | inconclusive [activator, single point] | 
N#CCCN(C(=O)Nc1ccccc1)C1CCCCC1 |  | inactive: 0.57%
COc1ccc(CN(C)CC(=O)NCC(=O)Nc2c(C)cccc2C)cc1 |  | inactive: -10.1%
COC(=O)NC(NC(=S)Nc1ccc([N+](=O)[O-])cc1)C(Cl)(Cl)Cl (stereo not given) |  | inactive: 23.1%
NS(=O)(=O)c1ccc(NC(=O)Cc2cccs2)cc1 | inconclusive [activator, single point] | 
CCCN(CC(=O)Nc1ccc(F)c(F)c1F)CC(=O)Nc1c(Cl)cccc1Cl | inconclusive [activator, partial curve, poor fit] | 
COc1cnc(-c2ccccc2)nc1Oc1cccc(C)c1 | inconclusive [activator, single point] | 
CC1CN(C(=O)c2cccc(COc3ccc(Br)cc3)c2)CC(C)O1 (stereo not given) | inconclusive [activator, partial curve, poor fit] | 
O=C(O)c1cccc(NC(=O)c2cccc(S(=O)(=O)Nc3cccc([N+](=O)[O-])c3)c2)c1 |  | inactive: -2.03%
COc1ccc(/C=N\NC(=O)c2ccccc2OC)cc1COc1c(F)c(F)c(F)c(F)c1F |  | inactive: 8.25%
CCOc1ccc(NC(=S)NCc2ccc3c(c2)OCO3)cc1 |  | inactive: 0%
CC(/C=N/NC(=O)c1cc(-c2ccccc2)nc2ccccc12)=C\c1ccco1 | inconclusive [activator, full curve, poor fit] | 
CCCCNC1=CC(=O)C(NCCCC)=CC1=O | inconclusive [activator, single point] | 
CN(Cc1cccs1)C(=O)CNC(=O)c1ccco1 |  | inactive: 7.4%
CCOc1ccc(NC(=O)N2CCC(n3nnc4ccccc43)CC2)cc1 | inconclusive [activator, single point] | 
CC(NC(=O)CCN1C(=O)c2ccccc2C1=O)c1ccccc1 (stereo not given) |  | inactive: 1.24%
Cc1ccc(-c2noc(C3CCCN(C(=O)c4c(F)cccc4F)C3)n2)cc1 (stereo not given) | inconclusive [activator, single point] | 
COCCOC(=O)C1=C(C)OC(N)=C(C#N)C1c1cc2cccc(C)c2nc1Cl (stereo not given) | active: 23.1 µM | 
Oc1ccc(-c2onc(C(F)(F)F)c2-c2cscn2)c(O)c1 | inconclusive [activator, partial curve, poor fit] | 
CCOc1ccccc1NC(=O)c1ccc(C(=O)Nc2ccccc2OCC)nc1 | inconclusive [activator, full curve] | 
O=C(NC1CCCC1)c1ccc(CS(=O)Cc2ccccc2Cl)o1 (stereo not given) | inconclusive [activator, single point] | 
O/N=C/c1cn(-c2ccccc2)nc1-c1ccccc1 | inconclusive [activator, single point] | 

— PubChem BioAssay AID624296 (National Center for Advancing Translational Sciences (NCATS), 2012)
